Measured values as given in the RNAGym collection of RNA variant scans (doi:10.1093/nar/gkz1192).
The source gives no read counts; variants with many changes may rest on few reads.

B1: CPEB3 Ribozyme (parent)
chain: UAACAGGGGGCCACAGCAGAAGCGUUCACGUCGCAGCCCCUGUCAGAUUCUGGUGAAUCUGCGAAUUCUGCUGUAUAUCUC

Variants of: B1
Assay: self-cleavage, relative activity (ratio to wild type); higher = more cleavage; in vitro, sequencing
Outline: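 Relative activity compares each variant's cleaved/total read fraction with that of the unmutated ribozyme. To get these fractions, barcoded CPEB3 ribozyme libraries from rounds of error-prone PCR were transcribed with T7 RNA polymerase for 5 hours at 37°C and then given 15 min of DNase I treatment before EDTA was added. The RNAs were reverse transcribed with template switching and sequenced on Illumina, and DNA sequencing linked barcodes to variants. A minimum of 5 reads applied, and three batches were averaged.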

Variant	self-cleavage
A3C A28G U78C	0.95
A3C A28G U60A	0.28
A3G A35C U66C U76C	0.48
A3G A28U G46C A57G	0.09
A2U A28U U58C	0.25
A3G C4U U49A U66A U69C	0.48
A2U A13U A18G A45G U72C	0.34
A3G A15C C23U A28G G61U U80C	0.43
A2U C34G C40A U49A U69A	0.23
A3G A20U G46U U67C	0.19
A3G A5G A20G U25C A65G U78C	0.35
A3G C11U C32A U41C G63U	0.07
A2U G19A A56G U58C U78C	0.07
A3G A35U C39U C40U A47G U60A U80C	0.14
A3G C17A A35U U60A U67C	0.07
A3G A28G G30U U31C G52A U66C U76C	0.11
A3C U41C U43A U58A	0.3
A3G A15U G16A C59A A65G	0.22
A3C A20G C39U	0.41
A2U A45U U49A	0.3
A2U A21G U43C U49C U72C	0.08
A2U A20U U26C U31A U69A U72A C79G	0.06
A3G A18U A20U A35U U41A A64G U80G	0.27
A3G A13G U31C C34U C38G C62U	0.12

Variant	self-cleavage
A3C G33C A45G U54A	0.33
A3G A15U U49C U67C	0.06
A3G A20G U26C A47G U58C	0.59
A3G A13U U26A	0.8
A3G A18C U60C U72C U74C	0.41
A3G A35U A64G U80C	0.48
A2U C23U U25C U72C	0.1
A3G A64G A65G	0.36
A3G C27A G36A A65G	0.26
A3G A15U U54A	0.85
A3G C12U A28G G55A U69C U78C	0.23
A3G A5C G8C A18G U26C A56G G73C	0.9
A3G A18G A47U	0.54
A3C U41A U43A	0.6
A3C G6A A21U G63U U78G	0.47
A3G A5G A13G U25C C34U U74A	0.14
A3C A45U U49C G53A A56G	1.12
A3G C34G U51A	0.79
A3G A5G U43G U80C	0.7
A3C U25A U51C A64U U72C U80C	0.1
A3G A5G U25C U43A	0.61
A2U U25C A45G	0.42
A3G A18G U31A U41C A65G A77U	0.19
A3C U69C U74C	0.95

Variant	self-cleavage
A3G A15U A18G	0.51
A3G A18G U66A U69A U78C	0.18
A3G A5G A18G A28G A64U U78C	0.35
A3C G8A G33A A35G U60C U72A	0.05
A2U C12A A21G U51G U74A	1.09
A3C A57G C59U	0.67
A3G A5U A35U U54A U72C	0.74
A2U A13G U54C	0.83
A3G C17G A18G A64G A65G	0
A2U U41C U49C G55C A57G	0.09
A2U A13G U25C	0.4
A3G C4U A20G G33A A57G C81U	0.13
A3G A5U U72G U78A	1.07
A3C A5G A18U A64G U69C	0.11
A3C A13G A20C G33A G36A U43C	0.11
A2U U58C U80A	0.75
A3G A18G U48C G55U U60C U76A	0.3
A2U A18G U31A	0.39
A3G A20U U26C G42A U43A	0.1
A2U C29A U43C A77G	0.13
A3G A28U C39U A47C U58C U67C U72A	0.06
A3C C34A A45U	0.62
A3G A5G A21G A47G	0.39
A2U A35G U51A C62U	0.89

Variant	self-cleavage
A3G A18U U69C U78C	0.5
A3G A13U U41C G55A U72C	0.94
A3G A18U A35U	0.48
A3G A45U A57G U60C	0.14
A3G C27A A45U A64G	0.09
A2U C14U A15G U25C U41A A57G U69G	0.15
A3G C12U U69A	0.96
A3G A5G A18G C32U A47G U60C U66G	0.07
A3C A5U C11U A18G	0.64
A3G A13G U41C	0.97
A2U U25C U41C U51A	0.37
A3G A57G U67C	0.43
A3G A20G A35U C40U A65G	0.39
A2U A5G U72C	0.84
A2U U26A U54C A75G	0.7
A3G A28U U74C A77G	1.17
A2U A13U U48C A64G	0.32
A3G A20G A47U U51C U54C	0.17
A3G A20G U41A G42A	0.06
A2U U26C A45G U58C	0.04
A3G C23U C29U U43A U67C U72C U80C	0.1
A2U C23U U48C	0.38
A3G A28G A77U	0.67
A2U A47G U66C U72C	0.32

Variant	self-cleavage
A3G A28U U31C A35U U76A U78C	0.76
A3G A57G A65G U67A U69A U72C	0.46
A3G A5U U26A G52U U72C	1.09
A3G C11G C32U C39A G46C A47G A77G	0.04
A3G A13G G16U G53C	0.13
A3G A47U U72C	0.24
A3G A15U A28U U41A U58C U69A A77U	0.08
A3G A5G U41G U66C U72C	0.15
A3G A28G U43C C44U U78A	0.57
A3G A13G G55U G63U	0.56
A3G A21G C32U A56G U72C	0.49
A3G A5U G9A A28G	0.28
A3G A13U A21G U49C U51C U54C	0.54
A2U A20G G52A U67C U72G	0.57
A3G A57G A65G U80C	0.23
A3C A13U U26A U41C U58C C79U C81A	0.94
A3G A13U U31A A45G	0.54
A3G A21G A64G	0.6
A3G A35U G46A U51A A56U U67C G70A	0.05
A3C A15G A18G U25C	0.58
A3G C17U U25G G55U A65U	0.07
A3G A20G U69C	0.62
A2U C11G U66A	0.27
A2U A18G A35G A45U U58C U78C	0.14

Variant	self-cleavage
A2U C12U U66C A77U	0.59
A3G A15G A20U A28G A47G C68A U76C	0.14
A3G A15G U54C U74C	0.77
A3G A57G U74C	1.14
A3C C23G U31A A45G A57G	0.1
A3G A28G U58A	0.09
A2U U26A U49A G61A A64G U72C U80C	0.14
A3G A35U G46C	0.34
A3G A20G A28G U60A U66C	0.17
A3G A18U G36A C40A	0.28
A3C C14U A65G	1
A3C C40A U48C A77G	0.06
A3G A15G U25C	0.1
A3G A15G A45C U54A U58A U69A A77G	0.39
A2U C4U A45G A56G	0.67
A3G A21C G30C	0.5
A2U A13G A28U U69G	0.29
A3G A21G A35G U80C	1.03
A3G A5U A13U A21G U67C U76C	0.19
A2U U25C U26C U41C U48C C62A U80A	0.44
A3G A13U A15U U69C G73A	0.21
A3G A21G U48A U69C	0.07
A2U U67A U69A	0.25
A2U A13G A35U A56G U72C	0.17

Variant	self-cleavage
A3G A15U U58A U76C	0.24
A3G A56G U74C U80C	1.06
A2U A35U U43C U60C	0.21
A3G A18U A21G A47G U54A U60A A65U	0.12
A3G C11A U31C A64G A75G C81U	0.13
A3G C12A C38G G42A	0.24
A2U U26C G36A C38U U72C U78A	0.06
A2U G7A A64U	0.13
A3G C11G U49C	0.14
A3C A5C G8A A47G U51C A64U U80C	0.1
A2U A45U U72A	0.22
A3G A15G G19U U51A G61A	0.08
A3C A35U U66C	0.46
A2U U25C U26C U41A U51C A64C	0.22
A3G A13U A20U U41C	0.51
A3G C4U A28U C44U U54C	0.6
A3G A15U A45U A47G A75G	0.34
A2U C4U G9U A15G	0.51
A2U U25C A28G	0.11
A3G A20U U31C A56G A64G U72A	0.1
A2U C14U A18C A64G	0.1
A3C C11A C39A U41C U78C	0.18
A3G A20G G33A	0.07
